Out of some 350,000 compounds screened, about 31,000 (8.9%) were called active. Inconclusive means that the source gave no clear call. Such entries were picked first, then a sample of the others. The call rests on the fitted dose curve; in most records, active means well fitted inhibition curve with a large enough effect; inconclusive means small, poorly fitted or top-dose-only effect; inactive means no such curve, though single readings can be large or run the other way. Potencies of inconclusive entries are doubtful fits and often do not repeat.
These compounds were tested against Histone-lysine N-methyltransferase EHMT2 (Homo sapiens) (UniProt Q96KQ7) (assay: qHTS Assay for Inhibitors of Histone Lysine Methyltransferase G9a). Conditions: G9a H3K9 monomethylation, AlphaScreen, 2 h; activity, negative = inhibition: at 59 µM (top of the series) unless noted.
Chain of UniProt Q96KQ7 (Q96KQ7 whole entry, looked up): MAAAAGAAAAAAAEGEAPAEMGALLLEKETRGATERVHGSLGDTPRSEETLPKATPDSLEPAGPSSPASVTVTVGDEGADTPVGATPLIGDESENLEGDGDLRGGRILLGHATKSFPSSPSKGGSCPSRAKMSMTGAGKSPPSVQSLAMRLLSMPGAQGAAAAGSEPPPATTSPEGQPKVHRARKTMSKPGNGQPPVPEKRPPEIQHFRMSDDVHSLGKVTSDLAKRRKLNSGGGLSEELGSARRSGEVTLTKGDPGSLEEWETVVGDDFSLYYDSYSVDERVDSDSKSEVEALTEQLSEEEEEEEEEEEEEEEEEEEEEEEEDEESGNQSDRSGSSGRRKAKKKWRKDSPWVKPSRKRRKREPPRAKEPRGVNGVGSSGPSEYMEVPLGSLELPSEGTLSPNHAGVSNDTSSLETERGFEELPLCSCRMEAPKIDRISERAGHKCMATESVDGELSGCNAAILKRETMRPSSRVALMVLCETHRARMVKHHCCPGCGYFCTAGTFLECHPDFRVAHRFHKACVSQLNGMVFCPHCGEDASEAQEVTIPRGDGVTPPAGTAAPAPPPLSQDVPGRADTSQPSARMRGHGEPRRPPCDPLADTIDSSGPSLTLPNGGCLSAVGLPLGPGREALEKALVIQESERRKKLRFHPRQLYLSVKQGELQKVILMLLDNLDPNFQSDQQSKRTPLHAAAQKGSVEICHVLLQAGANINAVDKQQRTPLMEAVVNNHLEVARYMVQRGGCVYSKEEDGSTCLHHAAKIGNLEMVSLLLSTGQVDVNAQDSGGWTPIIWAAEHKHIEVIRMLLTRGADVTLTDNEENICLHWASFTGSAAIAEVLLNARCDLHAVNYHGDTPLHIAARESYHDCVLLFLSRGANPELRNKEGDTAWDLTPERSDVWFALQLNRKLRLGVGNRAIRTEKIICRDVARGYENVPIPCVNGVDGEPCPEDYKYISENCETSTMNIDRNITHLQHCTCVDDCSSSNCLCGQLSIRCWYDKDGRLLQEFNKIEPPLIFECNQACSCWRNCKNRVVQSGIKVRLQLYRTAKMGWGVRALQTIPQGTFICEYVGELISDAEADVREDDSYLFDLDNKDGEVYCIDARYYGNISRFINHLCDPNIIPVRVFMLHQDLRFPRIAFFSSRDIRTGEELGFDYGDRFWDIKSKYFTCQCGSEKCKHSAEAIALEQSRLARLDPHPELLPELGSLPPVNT
Summary of the method: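 Step 1: enzyme (final 20 nM) with compound, 15 min RT. Step 2: substrate peptide 500 nM and SAM 20 uM, 2 h RT. Step 3: anti-H3K9me1 antibody and AlphaScreen beads, 10 min, then plate read.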
Further: nearly all actives have a fitted effect of over 75% in size.
On the % scale 0 is the no-effect control and ±100 the full control effect; potency means the concentration at half of the fitted maximal effect; tags describe the fitted curve by direction and shape.

SMILES	Potency	activity, negative = inhibition
COc1ccc(CC(=S)N2CCOCC2)cc1	inconclusive: 3.16 µM [inhibitor, full curve, poor fit]	–
Clc1ccccc1Cc1noc(CN2CCN(c3cnccn3)CC2)n1	inconclusive: 79.4 µM [inhibitor, partial curve, poor fit]	–
CC(=O)Nc1ccc(S(=O)(=O)NC(C(=O)O)C(C)O)cc1 (configuration not stated)	–	inconclusive: -91.2% [inhibitor]
COc1ccc(N2CCN(CCCNC(=O)c3cnn(-c4ccc(C)cc4)c3-n3cccc3)CC2)cc1	inconclusive: 3.98 µM [inhibitor, full curve, poor fit]	–
CSc1ccccc1NC(=O)CN(C)CC(=O)Nc1c(F)cccc1F	active: 7.94 µM	–
O=C(CNS(=O)(=O)c1ccccc1)N/N=C\c1ccc(Cl)cc1	inactive	–
O=C(CCc1cccc(Cl)c1)N1CCCC(Nc2ccccc2)C1 (configuration not stated)	inconclusive: 79.4 µM [inhibitor, single point]	–
CN1C(=O)Cc2cc(S(=O)(=O)NCc3ccc(Cl)cc3)ccc21	inconclusive: 31.6 µM [inhibitor, partial curve, poor fit]	–
Cc1nnsc1C(=O)Oc1ccc(Cl)cc1	active: 12.6 µM	–
O=C(O)[C@H](Cc1c[nH]c2ccccc12)Nc1ncccc1[N+](=O)[O-]	inconclusive: 89.1 µM [inhibitor, single point]	–
CCOc1ccc(/C=C2/SC(=S)N(n3c(C)ccc3C)C2=O)cc1	active: 10 µM	–
COc1ccc(NC(=O)c2ncn(-c3ccccc3)n2)cc1Cl	inactive	–
CCc1ccc(-n2nc(C)c3c(C)cc(=O)n(CC(=O)Nc4cc(C)ccc4C)c32)cc1	inconclusive: 39.8 µM [inhibitor, single point]	–
COc1oc(-c2ccc(Cl)cc2)nc1C(F)(F)F	inconclusive: 35.5 µM [inhibitor, single point]	–
Cc1ccc(Cn2c(SCC(=O)N/N=C/c3ccc(C)o3)nc3ccccc32)cc1	inconclusive: 3.16 µM [inhibitor, single point]	–
CC(C)(C)c1ccc(-c2n[nH]c(=S)n2C2CCCC2)cc1	active: 7.94 µM	–
O=C(O)c1ccccc1N/N=C\c1ccnc2ccccc12	inconclusive: 25.1 µM [inhibitor, single point]	–
CC(OC(=O)c1cccs1)C(=O)NCc1ccco1 (configuration not stated)	inactive	–
CCC(Sc1nnc2c(n1)[nH]c1ccccc12)C(=O)Nc1ccccc1OC (configuration not stated)	inactive	–
CCOC(=O)N1CCN(S(=O)(=O)c2c(C)[nH]c(=O)[nH]c2=O)CC1	inconclusive: 0.355 µM [inhibitor, partial curve, poor fit]	–
CO/N=C(\c1nonc1N)N1CCN(c2ccc(Cl)cc2[N+](=O)[O-])CC1	active: 35.5 µM	–
O=C(Nc1cccc(O)c1)N1CCOCC1	inconclusive: 25.1 µM [inhibitor, single point]	–
O=C(CNCC1CCCO1)Nc1ccccc1N1CCCCCC1 (configuration not stated)	active: 44.7 µM	–
COc1ccccc1NC(=O)N1CCN(Cc2nc3ccc(C)cc3o2)CC1	inconclusive: 28.2 µM [inhibitor, partial curve, poor fit]	–

SMILES	Potency	activity, negative = inhibition
NC(=O)c1ccsc1NC(=O)c1ccco1	inconclusive: 79.4 µM [inhibitor, partial curve, poor fit]	–
CCN1C(=O)S/C(=C\c2ccc(N3CCOCC3)cc2C)C1=O	inconclusive: 79.4 µM [inhibitor, partial curve, poor fit]	–
NS(=O)(=O)c1cccc(NC(=O)COC(=O)C2(c3cccc(F)c3)CCCC2)c1	inconclusive: 3.16 µM [inhibitor, partial curve, poor fit]	–
Cc1ccc2oc(C(=O)Nc3ccc(S(=O)(=O)N4CCCCCC4)cc3)cc(=O)c2c1	inactive	–
O=C(Nc1ccc(-c2csc(-c3ccccc3)n2)cc1)c1ccccc1	–	inactive: 26.7% [at 0.501 µM]
CN(C)c1cc(N/N=C/c2ccc(Cl)cc2)nc(N(C)C)n1	inconclusive: 44.7 µM [inhibitor, partial curve, poor fit]	–
O=C(CSc1nc2ccccc2s1)N/N=C/c1ccccc1C(=O)O	inactive	–
O=C1c2ccccc2C(Nc2ccc(S(=O)(=O)N3CCCCC3)cc2)N1c1ccccn1 (configuration not stated)	inconclusive: 39.8 µM [inhibitor, single point]	–
COc1nc(NC(C)=O)nc(C)c1Br	inconclusive: 89.1 µM [inhibitor, single point]	–
COc1ccc(S(=O)(=O)NCCSCc2ccco2)cc1Cl	inconclusive: 35.5 µM [inhibitor, full curve]	–
S=c1[nH]nc(-c2ccccc2)n1/N=C/c1c[nH]c2ccccc12	active: 1.58 µM	–
CC(C)(C)NC(=O)C(=O)NCCC1=CCCCC1	inactive	–
COc1ccc(CN2CCN(C(=O)CC(C)C)CC2)c(OC)c1OC	–	inconclusive: -89.6% [inhibitor]
COc1ccccc1NC(=O)Cn1nc2c3cc(F)ccc3n(Cc3cccc(C)c3)cc-2c1=O	inconclusive: 4.47 µM [inhibitor, single point]	–
CCN1CCN(CCNC(=O)c2cc(Cl)c(NC(=O)C3=C(C)OCCS3)cc2OC)CC1	inconclusive: 89.1 µM [inhibitor, single point]	–
CC(C)CNC(C(=O)Nc1ccc([N+](=O)[O-])cc1Br)c1ccccc1 (configuration not stated)	active: 6.31 µM	–
Cc1cc(C)cc(OCC(=O)Nc2ccc(F)cc2)c1	inconclusive: 50.1 µM [inhibitor, partial curve]	–
C/C(CC1CC(C)(C)OC1=O)=N/Nc1nc(-c2ccccc2)cs1 (configuration not stated)	active: 3.16 µM	–
O=C(NC(C(=O)c1ccccc1)n1c(=O)cc[nH]c1=S)c1ccccc1 (configuration not stated)	active: 14.1 µM	–
Cc1nc2c3ccccc3n(CC(=O)c3ccc(F)cc3)c(=O)n2n1	inconclusive: 79.4 µM [inhibitor, single point]	–
O=[N+]([O-])c1cc(S(=O)(=O)Nc2ccccc2)ccc1NCc1ccccc1	inconclusive: 39.8 µM [inhibitor, single point]	–
O=C(NN1S(=O)(=O)c2ccccc2S1(=O)=O)c1ccc(Br)cc1	inconclusive: 20 µM [inhibitor, partial curve, poor fit]	–
CCN(CC)S(=O)(=O)c1ccc(Cl)c(C(=O)NCc2ccccc2Cl)c1	inactive	–
CCOC(=O)c1c(-c2ccc(C)o2)csc1NC(=O)CSc1nnnn1-c1ccccc1	inconclusive: 25.1 µM [inhibitor, partial curve, poor fit]	–

SMILES	Potency	activity, negative = inhibition
CC(=O)N1CCCc2cc(S(=O)(=O)NCc3ccccc3Cl)ccc21	inactive	–
COC(=O)c1ccc(Sc2ccc(C)cc2)c(N)c1	–	inactive: -39.2% [at 12.7 µM]
Cn1c(CSc2ccccc2)c(C#N)c2ccccc21	inactive	–
CC1CCN(S(=O)(=O)c2cccc3cccnc23)CC1	inactive	–
Cc1ccc(-c2nnn(CC(=O)Nc3cccc4cccnc34)n2)o1	–	inconclusive: -72.6% [inhibitor]
Oc1c(C(c2ccccc2Cl)N2CCC(O)CC2)sc2nc(-c3ccco3)nn12 (configuration not stated)	inconclusive: 28.2 µM [inhibitor, single point]	–
Cc1ccc(NC(=O)Cn2c(=O)n(-c3ccccc3)c(=O)c3ccc(C(=O)NCc4ccc5c(c4)OCO5)cc32)cc1	inactive	–
Cc1c(C(=O)N2CCc3ccccc3C2)sc2nc(-c3ccccc3)cn12	inconclusive: 8.91 µM [inhibitor, partial curve, poor fit]	–
CN1CCc2c(sc3c2c(=O)n(-c2ccccc2)c2nnc(SCc4ccccc4)n32)C1	inconclusive: 7.08 µM [inhibitor, single point]	–
[N-]=[N+]=CC(=O)c1ccnc(C(=O)C=[N+]=[N-])c1	inconclusive: 1.58 µM [inhibitor, partial curve, poor fit]	–
CCOC(=O)c1c(C)c(C(=O)N2CCN(C(=O)c3ccco3)CC2)c(C)n1C	inactive	–
Cc1ccc(OCCN2CCCCCC2)c(C)c1	–	inactive: -1.13% [at 12.7 µM]
COc1ccccc1NC(=O)CCC(=O)c1ccc(-c2ccccc2)cc1	inactive	–
CCc1ccc(NC(=O)C2CCC(CNC(=O)[C@@H]3Cc4ccccc4CN3)CC2)cc1 (some centres not stated)	inactive	–
CN(N)C(=S)Nc1ccc(F)cc1	active: 50.1 µM	–
COCCCNC(=O)/C(C#N)=C1\N=C(NC(=O)c2cccs2)c2ccccc21	inconclusive: 44.7 µM [inhibitor, partial curve, poor fit]	–
O=S(=O)(NNc1ccc(F)cc1F)c1cccc(Cl)c1	active: 1.26 µM	–
COc1cccc(CN2CCNC(=O)C2CC(=O)NC2CCCCC2)c1OC (configuration not stated)	active: 35.5 µM	–
NC(=O)C1(NC(=O)[C@@H]2CC3(CC(c4cccc(NC(=O)[C@@H]5CCC(=O)N5)c4)=NO3)CN2C(=O)c2cnccn2)CC1 (some centres not stated)	inconclusive: 56.2 µM [inhibitor, partial curve, poor fit]	–
O=C(Nc1ccccc1C(=O)O)c1ccc(Cl)c(S(=O)(=O)N2CCOCC2)c1	–	inactive: 3.73% [at 12.7 µM]
O=C(/C=C/NCc1ccc(F)cc1)c1ccccc1	inconclusive: 0.251 µM [inhibitor, partial curve, poor fit]	–
Cc1ccc(-n2ncc(C(=O)NCc3ccccn3)c2C2CCN(C(=O)OC(C)(C)C)CC2)cc1C	inactive	–
CC(C)CC(=O)Nc1nnn(C)n1	inconclusive: 89.1 µM [inhibitor, partial curve, poor fit]	–
COCCn1c(=S)[nH]c2cc(OC)c(OC)cc2c1=O	inconclusive: 35.5 µM [inhibitor, single point]	–
